The list shows a part of the results.
target: T1, MBP-FoxP1dN (Mus musculus, UniProt P58462 326-579); assay: PD-seq (MBP pull-down with sequencing); 20 mM Tris-HCl pH 7.5, 100 mM NaCl, 1.5 mM MgCl2, 0.4 uM protein, 0.1 uM dsDNA library, 30 min, room temperature, amylose pull-down; high values mean tight binding; settings: protein: recombinant; tags: His6-MBP; chain copies: 2; dsDNA, one strand shown
T1 sequence: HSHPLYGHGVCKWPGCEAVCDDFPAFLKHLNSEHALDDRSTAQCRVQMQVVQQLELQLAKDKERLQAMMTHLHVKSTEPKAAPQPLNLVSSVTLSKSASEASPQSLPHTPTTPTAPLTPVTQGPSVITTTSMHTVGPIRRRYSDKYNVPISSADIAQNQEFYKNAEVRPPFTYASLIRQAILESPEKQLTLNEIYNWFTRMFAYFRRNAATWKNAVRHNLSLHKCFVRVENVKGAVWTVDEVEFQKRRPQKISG
Outline: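 A fragment of mouse FoxP3 or FoxP1 without its N-terminus, carrying a His6-MBP tag and produced in E. coli, was combined at 0.4 µM with a 0.1 µM degenerate double-stranded DNA library filled in with Klenow. The mixture sat for 30 min at room temperature in Tris pH 7.5 buffer containing NaCl and MgCl2. Protein–DNA complexes were captured on amylose resin, washed three times, and the DNA was freed with proteinase K, barcoded by PCR and sequenced on Illumina. Binding is expressed as reads-per-million enrichment of pull-down over input, with replicates pooled.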

Going from “GATGATTGTTCTCCCAGCTGATGAATTCAGACCGTCGAGTAAACAAATTTTCCTAATCTTTCTGTTCAAGCGCCATCTAC” to “GATGATTGTTCTCCCAGCTGATGAATTCACTGAGTCGAGTAAACAAATTTTCCTAATCTTTCTGTTCAAGCGCCATCTAC”, the binding signal falls from 0.827 RPM ratio (pull-down/input) to 0.811 RPM ratio (pull-down/input).

Going from “GATGATTGTTCTCCCAGCTGATGAATTAACTCGATCGAGTAAACAAATTTTCCTAATCTTTCTGTTCAAGCGCCATCTAC” to “GATGATTGTTCTCCCAGCTGATGAATTATAATCCTCGAGTAAACAAATTTTCCTAATCTTTCTGTTCAAGCGCCATCTAC”, the binding signal rises from 0.884 RPM ratio (pull-down/input) to 0.973 RPM ratio (pull-down/input).

First: GATGATTGTTCTCCCAGCTGATGAATTCGGACTGTCGAGTAAACAAATTTTCCTAATCTTTCTGTTCAAGCGCCATCTAC
Second: GATGATTGTTCTCCCAGCTGATGAATTGAGATCCTCGAGTAAACAAATTTTCCTAATCTTTCTGTTCAAGCGCCATCTAC
The binding signal of the first is lower: 0.743 RPM ratio (pull-down/input) for the first, 0.799 RPM ratio (pull-down/input) for the second.

Going from “GATGATTGTTCTCCCAGCTGATGAATTGAAACGGTCGAGTAAACAAATTTTCCTAATCTTTCTGTTCAAGCGCCATCTAC” to “GATGATTGTTCTCCCAGCTGATGAATTACGCTTGTCGAGTAAACAAATTTTCCTAATCTTTCTGTTCAAGCGCCATCTAC”, the binding signal rises from 0.831 RPM ratio (pull-down/input) to 1.01 RPM ratio (pull-down/input).

Compared with “GATGATTGTTCTCCCAGCTGATGAATTGCTCAGATCGAGTAAACAAATTTTCCTAATCTTTCTGTTCAAGCGCCATCTAC”, “GATGATTGTTCTCCCAGCTGATGAATTTAATCGCTCGAGTAAACAAATTTTCCTAATCTTTCTGTTCAAGCGCCATCTAC” is lower in binding signal: 0.962 RPM ratio (pull-down/input) for the first, 0.921 RPM ratio (pull-down/input) for the second.

Compared with “GATGATTGTTCTCCCAGCTGATGAATTATTCTCATCGAGTAAACAAATTTTCCTAATCTTTCTGTTCAAGCGCCATCTAC”, “GATGATTGTTCTCCCAGCTGATGAATTGTTAATGTCGAGTAAACAAATTTTCCTAATCTTTCTGTTCAAGCGCCATCTAC” is higher in binding signal: 1.1 RPM ratio (pull-down/input) for the first, 1.5 RPM ratio (pull-down/input) for the second.

Going from “GATGATTGTTCTCCCAGCTGATGAATTGCACGACTCGAGTAAACAAATTTTCCTAATCTTTCTGTTCAAGCGCCATCTAC” to “GATGATTGTTCTCCCAGCTGATGAATTTTGACGGTCGAGTAAACAAATTTTCCTAATCTTTCTGTTCAAGCGCCATCTAC”, the binding signal falls from 1.06 RPM ratio (pull-down/input) to 0.854 RPM ratio (pull-down/input).

Going from “GATGATTGTTCTCCCAGCTGATGAATTAAAAAATTCGAGTAAACAAATTTTCCTAATCTTTCTGTTCAAGCGCCATCTAC” to “GATGATTGTTCTCCCAGCTGATGAATTGGGGTTTTCGAGTAAACAAATTTTCCTAATCTTTCTGTTCAAGCGCCATCTAC”, the binding signal rises from 0.963 RPM ratio (pull-down/input) to 0.965 RPM ratio (pull-down/input).

Going from “GATGATTGTTCTCCCAGCTGATGAATTATGTCCATCGAGTAAACAAATTTTCCTAATCTTTCTGTTCAAGCGCCATCTAC” to “GATGATTGTTCTCCCAGCTGATGAATTTAGCAAATCGAGTAAACAAATTTTCCTAATCTTTCTGTTCAAGCGCCATCTAC”, the binding signal rises from 1.1 RPM ratio (pull-down/input) to 1.21 RPM ratio (pull-down/input).

Going from “GATGATTGTTCTCCCAGCTGATGAATTCGTAGGGTCGAGTAAACAAATTTTCCTAATCTTTCTGTTCAAGCGCCATCTAC” to “GATGATTGTTCTCCCAGCTGATGAATTACTTGGGTCGAGTAAACAAATTTTCCTAATCTTTCTGTTCAAGCGCCATCTAC”, the binding signal rises from 0.802 RPM ratio (pull-down/input) to 0.844 RPM ratio (pull-down/input).

First: GATGATTGTTCTCCCAGCTGATGAATTTCTCGTGTCGAGTAAACAAATTTTCCTAATCTTTCTGTTCAAGCGCCATCTAC
Second: GATGATTGTTCTCCCAGCTGATGAATTGCCATAATCGAGTAAACAAATTTTCCTAATCTTTCTGTTCAAGCGCCATCTAC
The binding signal of the first is lower: 0.851 RPM ratio (pull-down/input) for the first, 1.28 RPM ratio (pull-down/input) for the second.

First: GATGATTGTTCTCCCAGCTGATGAATTTAGATCGTCGAGTAAACAAATTTTCCTAATCTTTCTGTTCAAGCGCCATCTAC
Second: GATGATTGTTCTCCCAGCTGATGAATTGGACTTTTCGAGTAAACAAATTTTCCTAATCTTTCTGTTCAAGCGCCATCTAC
The binding signal of the first is higher: 0.981 RPM ratio (pull-down/input) for the first, 0.913 RPM ratio (pull-down/input) for the second.

Going from “GATGATTGTTCTCCCAGCTGATGAATTATCTCTTTCGAGTAAACAAATTTTCCTAATCTTTCTGTTCAAGCGCCATCTAC” to “GATGATTGTTCTCCCAGCTGATGAATTAATACTTTCGAGTAAACAAATTTTCCTAATCTTTCTGTTCAAGCGCCATCTAC”, the binding signal falls from 1.08 RPM ratio (pull-down/input) to 1 RPM ratio (pull-down/input).

Going from “GATGATTGTTCTCCCAGCTGATGAATTGCTTCTTTCGAGTAAACAAATTTTCCTAATCTTTCTGTTCAAGCGCCATCTAC” to “GATGATTGTTCTCCCAGCTGATGAATTTGCAGTATCGAGTAAACAAATTTTCCTAATCTTTCTGTTCAAGCGCCATCTAC”, the binding signal falls from 1.09 RPM ratio (pull-down/input) to 1.06 RPM ratio (pull-down/input).

Compared with “GATGATTGTTCTCCCAGCTGATGAATTCAGGCTCTCGAGTAAACAAATTTTCCTAATCTTTCTGTTCAAGCGCCATCTAC”, “GATGATTGTTCTCCCAGCTGATGAATTGAAGTGGTCGAGTAAACAAATTTTCCTAATCTTTCTGTTCAAGCGCCATCTAC” is higher in binding signal: 0.846 RPM ratio (pull-down/input) for the first, 0.851 RPM ratio (pull-down/input) for the second.

First: GATGATTGTTCTCCCAGCTGATGAATTCAAGACATCGAGTAAACAAATTTTCCTAATCTTTCTGTTCAAGCGCCATCTAC
Second: GATGATTGTTCTCCCAGCTGATGAATTCGTGCAATCGAGTAAACAAATTTTCCTAATCTTTCTGTTCAAGCGCCATCTAC
The binding signal of the first is lower: 0.969 RPM ratio (pull-down/input) for the first, 1.17 RPM ratio (pull-down/input) for the second.
